# Source: the supplement of paper PMC10126150
# Values marked as one replicate rest on one cluster of the flow cell; about a third of the high ones do not repeat.
# Tested on: ATP
# Test: switch fluorescence ratio, 500 uM ATP over buffer (Cy3 cluster intensity, sum of 5 cycles each) (fold (ratio)); higher = stronger signal-on switching upon ATP binding; sequences stand for … in TCGTCGGCAGCGTCAGATGTGTATAAGAGACAGTTTTTTTTTTTTTTTTTTTTTTTTT…TC
# Settings: aptamer strand: ATP DNA aptamer (quencher-CACCTGGGGGAGTATTGCGGAGGAAGG + anchor), 100 nM annealed; ATP concentration: 500 uM; one replicate
# Summary of the method: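 The quencher-labelled ATP aptamer, at 100 nM, was annealed to Cy3-labelled switching-strand clusters on a modified Illumina MiSeq flow-cell. The clusters were imaged in selection buffer, then after 15 min with 500 uM ATP at 22 °C, and this buffer/ATP cycle ran five times with NaOH stripping and re-annealing between runs. Per-cluster fluorescence ratios, summed target-cycle over summed buffer-cycle Cy3 intensity, were averaged per switch-domain sequence. Clusters outside 100-1000 RFU were excluded.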
# 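Also: ATP exposure 15 min at 22 °C before imaging.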
row,Sequence,switch fluorescence ratio
1,CGCTGGGCAA,1.79
2,CGCTGGTAGG,1.01
3,CGCTGTATTC,1.06
4,CGCTTATCCC,1.45
5,CGCTTCTCAC,1.7
6,CGCTTCTGT,1
7,CGCTTGGCTA,0.994
8,CGCTTGGTAG,0.994
9,CGCTTGTGTA,1.02
10,CGCTTTAATC,1.22
11,CGCTTTACCT,1.27
12,CGCTTTTAGG,0.94
13,CGGAAAATGG,0.991
14,CGGAAACTCT,1.07
15,CGGAAAGGAC,1.01
16,CGGAAATAGG,0.96
17,CGGAAATCA,1.01
18,CGGAACTGGG,1.03
19,CGGAAGAGGG,1.01
20,CGGAAGGTGA,1.2
21,CGGAAGTCAG,0.994
22,CGGAAGTTAC,1.5
23,CGGAATCAAT,1.05
24,CGGAATCAGC,1.08
25,CGGAATTCTG,1.02
26,CGGAATTCTT,1.03

row,Sequence,switch fluorescence ratio
1,CGGAATTTCT,1.04
2,CGGAATTTTA,1.05
3,CGGACACGCT,0.925
4,CGGACACGTC,1.01
5,CGGACACTAT,1.06
6,CGGACGCACC,6.35
7,CGGACGCTGA,1.07
8,CGGACGCTGT,1.27
9,CGGACGGGTA,1.01
10,CGGACTATAC,4.19
11,CGGACTGTT,1.01
12,CGGAGAGTGG,1.01
13,CGGAGCGGGG,1.06
14,CGGAGGACAG,1.03
15,CGGAGGAGCG,0.997
16,CGGAGGTAG,1.01
17,CGGAGTACT,1.25
18,CGGAGTGTTC,1.17
19,CGGAGTTGCT,1.04
20,CGGATAAGGA,1
21,CGGATAATCT,1
22,CGGATCCGGT,0.984
23,CGGATGCATC,1.05
24,CGGATGCGAC,1.09
25,CGGATGGGCA,1
26,CGGATGTAGA,1.04

row,Sequence,switch fluorescence ratio
1,CGGATTAAAT,1
2,CGGATTTACG,1.01
3,CGGCAAAAAG,1.11
4,CGGCAAAGGG,0.972
5,CGGCACCGT,0.995
6,CGGCACTTCA,1.03
7,CGGCAGCAC,4.7
8,CGGCAGCACC,1.48
9,CGGCAGCTAT,2.1
10,CGGCAGCTCG,0.965
11,CGGCAGGAAT,0.969
12,CGGCAGTCGG,1.07
13,CGGCATAGGT,1.01
14,CGGCATCTAT,1.01
15,CGGCATGAAT,0.941
16,CGGCATGCTT,1.05
17,CGGCATTACA,1.83
18,CGGCATTTAA,1.07
19,CGGCCAATCA,1.08
20,CGGCCCAGGA,1.29
21,CGGCCCCATT,1.01
22,CGGCCGAACG,0.987
23,CGGCCGACGG,1.01
24,CGGCCGTTAG,1.03
25,CGGCCTGAAA,0.939
26,CGGCCTTCCA,1.53

row,Sequence,switch fluorescence ratio
1,CGGCGATCCG,1.01
2,CGGCGCAGG,1.21
3,CGGCGCATTT,1.71
4,CGGCGCTGGT,0.942
5,CGGCGGACGA,0.999
6,CGGCGGCATT,1.08
7,CGGCGGGGAT,1.01
8,CGGCGGTAGA,1.01
9,CGGCGTATCT,0.973
10,CGGCGTTTGG,0.99
11,CGGCTAGCTA,1
12,CGGCTCCGGC,1.03
13,CGGCTGCGTA,1.01
14,CGGCTTGAGA,1.02
15,CGGCTTTAAG,1.01
16,CGGGAAGCGA,1.06
17,CGGGAAGG,0.989
18,CGGGAAGGCG,0.977
19,CGGGAATTAC,1.47
20,CGGGAATTT,1.54
21,CGGGACGCTA,1.12
22,CGGGAGAAGC,0.984
23,CGGGAGGCTG,0.975
24,CGGGAGTAAG,1.03
25,CGGGCACACT,1.07
26,CGGGCATGAA,1

row,Sequence,switch fluorescence ratio
1,CGGGCCTAAG,0.97
2,CGGGCGCCGG,0.992
3,CGGGCGGCGC,0.968
4,CGGGCGGTTC,0.984
5,CGGGCTGCAG,0.947
6,CGGGGAAGAA,0.994
7,CGGGGACTGT,1.01
8,CGGGGCATAA,1.1
9,CGGGGCCAAG,1
10,CGGGGCCAGT,0.982
11,CGGGGCGAGT,1.21
12,CGGGGCTCTG,1.01
13,CGGGGGAACC,1.02
14,CGGGGGAACT,1.01
15,CGGGGTACGA,1.05
16,CGGGGTTTTA,0.967
17,CGGGTAC,1.1
18,CGGGTACCAA,1.06
19,CGGGTACGGG,0.979
20,CGGGTCATCT,0.998
21,CGGGTGAGAG,1.07
22,CGGGTGATGG,1.01
23,CGGGTGTAAA,0.987
24,CGGGTGTACG,1.03
25,CGGGTGTCTT,1.03
26,CGGGTTCCCT,1.03

row,Sequence,switch fluorescence ratio
1,CGGGTTCGTT,0.995
2,CGGGTTCTTA,1.01
3,CGGGTTGCAA,1.18
4,CGGGTTGTAC,1.07
5,CGGGTTTATT,0.996
6,CGGTAATAAT,1.03
7,CGGTACAAGC,1.06
8,CGGTACAGTC,1.06
9,CGGTACCTGG,0.964
10,CGGTACTAGT,0.932
11,CGGTAGGTCG,0.939
12,CGGTAGTACC,1.02
13,CGGTATCGAC,1.05
14,CGGTATCGCC,1
15,CGGTATGACT,0.935
16,CGGTATTGCT,1
17,CGGTCAGGCT,0.973
18,CGGTCATGAT,0.975
19,CGGTCCGACG,1.03
20,CGGTCCTGAC,1.15
21,CGGTGAACAT,0.977
22,CGGTGAACGT,1.01
23,CGGTGAAGAG,0.996
